Results reported in article PMC3701669.
Results are given in words; binding and its absence hold for the method and conditions named. Binding seen in cells or lysates may run through a third protein. Some results given as binding are weak or reduced against the parent protein; the word gives no strength. Where a sequence is shown, tags or fusion partners need not be part of it.

T1: GST-LHX3a (full-length LHX3 protein) (human) (UniProt Q9UBR4)
T1 sequence: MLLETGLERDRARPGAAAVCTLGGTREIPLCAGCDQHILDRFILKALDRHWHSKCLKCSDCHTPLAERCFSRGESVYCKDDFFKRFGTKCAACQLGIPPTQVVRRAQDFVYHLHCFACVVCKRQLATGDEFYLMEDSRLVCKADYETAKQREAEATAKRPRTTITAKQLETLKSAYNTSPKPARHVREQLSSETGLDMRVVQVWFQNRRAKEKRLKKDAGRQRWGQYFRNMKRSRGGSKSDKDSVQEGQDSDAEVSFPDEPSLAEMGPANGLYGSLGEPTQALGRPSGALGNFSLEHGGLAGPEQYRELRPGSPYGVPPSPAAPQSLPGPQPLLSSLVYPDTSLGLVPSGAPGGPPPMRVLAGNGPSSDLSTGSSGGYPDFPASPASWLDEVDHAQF


Each binder was assayed against T1, GST-LHX3a (full-length LHX3 protein) (human) (assay: pull-down; GST-LHX3 fusion on glutathione-agarose resin; 200,000 cpm of 35S-labeled in vitro translated protein (rabbit reticulocyte lysate or wheat germ extract); 20 mM HEPES pH 7.9, 300 mM NaCl, 1 mM EDTA, 4 mM MgCl2, 0.02% NP-40, 10% glycerol, 1 mM ZnCl2, 1 mM DTT, 20 µg/ml ethidium bromide; 1 hour at 4°C; SDS-PAGE, autoradiography; GST alone as control; only the target purified).

Binder | binding
LANP deletion construct, amino acids 60–249 (domain or fragment, UniProt P39687 60-249, 35S-methionine or 35S-cysteine label) LPKLNKLKKLELSDNRVSGGLEVLAEKCPNLTHLNLSGNKIKDLSTIEPLKKLENLKSLDLFNCEVTNLNDYRENVFKLLPQLTYLDGYDRDDKEAPDSDAEGYVEGLDDEEEDEDEEEYDEDAQVVEDEEDEDEEEEGEEEDVSGEEEEDEEGYNDGEVDDEEDEEELGEEERGQKRKREPEDEGEDDD | binds
LANP deletion construct, amino acids 120–249 (domain or fragment, UniProt P39687 120-249, 35S-methionine or 35S-cysteine label) LFNCEVTNLNDYRENVFKLLPQLTYLDGYDRDDKEAPDSDAEGYVEGLDDEEEDEDEEEYDEDAQVVEDEEDEDEEEEGEEEDVSGEEEEDEEGYNDGEVDDEEDEEELGEEERGQKRKREPEDEGEDDD | binds
LANP deletion construct, amino acids 150–249 (domain or fragment, UniProt P39687 150-249, 35S-methionine or 35S-cysteine label) RDDKEAPDSDAEGYVEGLDDEEEDEDEEEYDEDAQVVEDEEDEDEEEEGEEEDVSGEEEEDEEGYNDGEVDDEEDEEELGEEERGQKRKREPEDEGEDDD | binds
LANP deletion construct, amino acids 1–180 (domain or fragment, UniProt P39687 1-180, 35S-methionine or 35S-cysteine label) MEMGRRIHLELRNRTPSDVKELVLDNSRSNEGKLEGLTDEFEELEFLSTINVGLTSIANLPKLNKLKKLELSDNRVSGGLEVLAEKCPNLTHLNLSGNKIKDLSTIEPLKKLENLKSLDLFNCEVTNLNDYRENVFKLLPQLTYLDGYDRDDKEAPDSDAEGYVEGLDDEEEDEDEEEYD | no binding
LANP deletion construct, amino acids 1–150 (domain or fragment, UniProt P39687 1-150, 35S-methionine or 35S-cysteine label) MEMGRRIHLELRNRTPSDVKELVLDNSRSNEGKLEGLTDEFEELEFLSTINVGLTSIANLPKLNKLKKLELSDNRVSGGLEVLAEKCPNLTHLNLSGNKIKDLSTIEPLKKLENLKSLDLFNCEVTNLNDYRENVFKLLPQLTYLDGYDR | no binding
LANP deletion construct, amino acids 1–189 (domain or fragment, UniProt P39687 1-189, 35S-methionine or 35S-cysteine label) MEMGRRIHLELRNRTPSDVKELVLDNSRSNEGKLEGLTDEFEELEFLSTINVGLTSIANLPKLNKLKKLELSDNRVSGGLEVLAEKCPNLTHLNLSGNKIKDLSTIEPLKKLENLKSLDLFNCEVTNLNDYRENVFKLLPQLTYLDGYDRDDKEAPDSDAEGYVEGLDDEEEDEDEEEYDEDAQVVEDE | no binding
LANP INHATII domain (amino acids 190–249) (domain or fragment, UniProt P39687 190-249, 35S-methionine or 35S-cysteine label) EDEDEEEEGEEEDVSGEEEEDEEGYNDGEVDDEEDEEELGEEERGQKRKREPEDEGEDDD | no binding
